# According to PubChem BioAssay AID1963576 (National Center for Advancing Translational Sciences (NCATS), 2024):
# Screen size: about 46,000 compounds; about 60 (0.1%) were called active. Roughly 3% stayed inconclusive and do not appear here. The call rests on the fitted dose curve; in most records, active means well fitted inhibition curve with a large enough effect; inconclusive means small, poorly fitted or top-dose-only effect; inactive means no such curve, though single readings can be large or run the other way. This is one part of the list.
# Test: Primary qHTS assay for Inhibitors of ovarian cancer metastasis using an organotypic tumor microenvironment (TME) model. Further: nearly all actives have a fitted effect of over 65% in size.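 On activity change, negative = inhibition: plate controls were DMSO wells for no effect and tomatine positive control wells for full effect.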
# Conditions: SKOV3ip1-GFP adhesion/invasion on 3D omental model, fluorescence; series mostly up to 45.8 µM; activity change, negative = inhibition: at the top concentration
# Outline: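 Adhesion/invasion was scored as fixed GFP-labeled SKOV3ip1 cell counts (488/509 nm), normalized to DMSO and tomatine controls. Cancer cells in serum-free medium, with four compound doses (0.36-46 umol/L), sat 2 hr at RT then 16 hr at 37 C on a 48 hr fibroblast/mesothelial/ECM culture.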
Compound,"activity change, negative = inhibition",outcome
COc1ccc(CNC(=O)c2ccc3c(O)c(S(=O)(=O)c4ccccc4)c(=O)[nH]c3c2)cc1,inactive: 6.43%,–
CS(=O)(=O)N(Cc1ccccc1)c1ccc(C(=O)Nc2cccc(Cl)c2)cc1,inactive: -5.6%,–
Cc1cccc(N2CCN(C(=O)c3nn(C)c4c3CS(=O)(=O)c3ccccc3-4)CC2)c1C,inactive: -17.6%,–
Cc1cc(NS(=O)(=O)c2ccc(N)cc2)no1,inactive: -0.991%,–
COc1ccc(CN2CCc3c(c(=O)n4ncc(C(=O)N5CCN(c6ccccc6F)CC5)c4n3C)C2)cc1,inactive: 4.59%,–
COC(=O)c1ccc2c(=O)n3nc(Nc4ccc(F)cc4F)sc3nc2c1,inactive: 1.59%,–
COc1cc(CNc2ccc3[nH]c(=O)[nH]c3c2)ccc1OCc1ccc(F)cc1Cl,inactive: 1.72%,–
COc1ccccc1N1CCN(C(=O)c2cc(-c3ccc(C)c(F)c3)on2)CC1,inactive: -11.6%,–
CC(=O)c1cccc(NC(=O)CN2C(=O)CCc3cc(S(=O)(=O)N4CCCCC4)ccc32)c1,–,inactive
COCCCNC(=O)CN1C(=O)c2cccnc2Sc2ccccc21,inactive: 18.5%,–
O=C(Nc1cccc(C(F)(F)F)c1)Nc1nnc(N2CCCCCC2)s1,inactive: -0.64%,–
CCN(CC)CCNC(=O)C(=O)Nc1c2c(nn1-c1ccc(F)cc1)CSC2,inactive: 0.98%,–
COc1ccc(-c2cc(C(=O)Nc3sc4c(c3C(N)=O)CCCC4)no2)cc1,inactive: 33.1%,–
CCCCN1CC(c2nc3ccccc3n2CCCCOc2cc(C)cc(C)c2)CC1=O (stereo not given),–,inactive
CCOc1ccc(S(=O)(=O)N2Cc3ccccc3CC2C(=O)Nc2ccc(NC(C)=O)cc2)cc1 (stereo not given),–,inactive
COc1cccc2cc(C(=O)Nc3ccc(CC(=O)O)cc3)c(=O)oc12,inactive: -1.89%,–
Cc1cccc(NC(=O)CSc2nc3ccc(NC(=O)COc4ccccc4C)cc3s2)c1,inactive: -13.5%,–
CC1CN(C(=O)NCc2ccccc2)c2cc(Cl)ccc2O1 (stereo not given),inactive: 3.54%,–
CCCNC(=O)CCC(=O)N1Cc2cccc(OC)c2Oc2ncccc21,inactive: 3.81%,–
O=C(NCc1ccc(Cl)cc1)C1CCN(c2nn3cc(-c4ccc(F)cc4)nc3s2)CC1,inactive: -4.01%,–
CCn1c2c(c(=O)n3ncc(C(=O)Nc4cc(Cl)ccc4OC)c13)CN(Cc1ccc(OC)cc1)CC2,inactive: -7.43%,–
COc1ccc(C)cc1NC(=O)N1CCN(S(=O)(=O)c2ccc3c(ccn3C)c2)CC1,–,inactive
CCCCc1cc(=O)oc2cc(C)c3c(C(C)(C)C)coc3c12,inactive: -1.65%,–
COc1cccc(CNC(=O)c2cc(-c3ccc(Cl)s3)nc3ccccc23)c1,inactive: 1.38%,–

Compound,"activity change, negative = inhibition",outcome
COc1ccc(NC(=O)c2nc(S(C)(=O)=O)ncc2N(Cc2ccc(C)cc2)Cc2ccco2)cc1Cl,inactive: 1.1%,–
COc1ccc(Cl)cc1NC(=O)c1cc(-c2ccc3c(c2)OCO3)on1,inactive: -5.13%,–
Cc1cccc(CSc2nc3c(sc4ccccc43)c(=O)n2CCC(=O)NC(C)C)c1,inactive: -0.621%,–
Cc1ncc(CO)c2c1Oc1nc(-c3ccc(Cl)cc3)nc(SCC(=O)N3CCCCC3)c1C2,inactive: 2.23%,–
CCOc1ccc(C(=O)c2cn(CC(=O)Nc3ccc4c(c3)OCO4)c3ccc(OC)cc3c2=O)cc1,inactive: 0.308%,–
Cc1ccc(CNC(=O)CCc2c(C)nn(-c3ccc(N4CCOCC4)nn3)c2C)cc1,inactive: 4.92%,–
COc1cccc(N2CCN(C(=O)C3CCCN(S(=O)(=O)c4cccc5nsnc45)C3)CC2)c1 (stereo not given),–,inactive
O=C(NCC(c1cccnc1)N1CCN(c2ccccc2F)CC1)C(=O)Nc1ccc(F)cc1F (stereo not given),inactive: -0.549%,–
O=C(CCn1c(=O)c2cccn2c2cccnc21)NCc1ccccc1Cl,inactive: 1.68%,–
O=C(CSc1nc2ncccc2[nH]1)Nc1cc(F)ccc1F,inactive: -4.99%,–
Cc1ccc(S(=O)(=O)c2cn(CC(=O)Nc3cccc(Cl)c3)c3ccccc3c2=O)cc1,–,inactive
CCOc1ccc(C(=O)Nc2cc(-c3nc4cc(OC)ccc4o3)ccc2C)cc1[N+](=O)[O-],–,inactive
CCOC(=O)C1CCN(C(=O)c2nn(-c3ccc(OC)c(Cl)c3)c(=O)c3c2c2ccccc2n3C)CC1,–,inactive
Cc1ccc(Cl)cc1NC(=O)CSc1nc2ccccc2c2nc(-c3ccccc3)nn12,inactive: 1.97%,–
CCn1c(=O)n(-c2ccc3c(c2)OCO3)c2nc(-c3ccc(C(C)C)cc3)nc(C(N)=O)c21,inactive: 2.5%,–
O=C(Nc1cccc(Cl)c1)C1CCCN(c2nn3cc(-c4ccc(F)cc4)nc3s2)C1 (stereo not given),inactive: 9.87%,–
COc1ccc(OC)c(NC(=O)Cn2c(=O)c3cccn3c3ccccc32)c1,inactive: 13.7%,–
CCOc1ccc2c(c1)c(=O)c(C(=O)c1ccc(CC)cc1)cn2CC(=O)Nc1ccccc1OC,inactive: 0.308%,–
Cc1ccccc1CN1c2ccccc2-c2nc(SCC(=O)c3ccccc3)ncc2S1(=O)=O,–,inactive
CC1CCCCN1CCCNC(=O)c1cc(Sc2cccc(Cl)c2)nc2ccccc12 (stereo not given),inactive: -14.1%,–
CCOc1ccccc1NC1(c2ccccc2)C(=O)c2ccccc2C1=O,–,inactive
O=C(COc1ccc2ccccc2c1)NC1CC(=O)N(c2ccc(F)cc2)C1 (stereo not given),inactive: -5.51%,–
CC1(C)N=C(SCc2ccc(F)cc2)c2ccccc2N1,inactive: 1.52%,–
O=C(Cn1cc(C(=O)C(F)(F)F)c2ccccc21)N1CCCCCC1,inactive: -26.8%,–

Compound,"activity change, negative = inhibition",outcome
Cc1c(CNC2CCCCC2)c(C(=O)O)c(C)n1Cc1ccccc1F,inactive: 6.37%,–
Cc1ccccc1OCc1nc2c3cnn(-c4cccc(F)c4)c3ncn2n1,inactive: -6.07%,–
CCNC(=O)c1ccc2c(c1)nc1n2CCCCC1,–,inactive
CCCCNC(=O)c1c(-c2ccccc2)c(-c2ccccc2)nn(C)c1=O,inactive: 1.06%,–
CCCCNC(=O)c1ccc2c(c1)N(CC)C(=O)c1ccccc1S2,–,inactive
Cc1ccc2c(c1)N(C(=O)N1CCC(C(=O)NCc3ccccc3C)CC1)CC(C)O2 (stereo not given),inactive: -0.293%,–
Cc1oc2ncn(CC(C)C)c(=O)c2c1C(=O)N(CCN(C)C)Cc1ccccc1,inactive: 3.51%,–
COc1cccc(C2C(C(=O)Nc3ccc(Cl)cc3)=C(C)Nc3nc4ccccc4n32)c1OC (stereo not given),inactive: -20.9%,–
CC(=O)N1CCCc2cc(S(=O)(=O)N3CCN(c4ccccc4F)CC3)ccc21,inactive: -8.18%,–
CCNC(=O)c1c(NC(=O)Cc2coc3ccc(CC)cc23)sc2c1CCCC2,inactive: 7.72%,–
O=C(CSc1nc(=O)[nH]c2c1CCCC2)NCc1ccccc1Cl,inactive: -3.72%,–
COc1ccc(C)cc1NC(=O)c1cc(S(=O)(=O)N2CCOCC2)cn1C,inactive: -30.2%,–
CC1=C(C(=O)Nc2cccnc2)C(c2cccc(F)c2)n2nc(SCc3ccccc3F)nc2N1 (stereo not given),inactive: -0.306%,–
CCCCNC(=O)CN1C(=O)c2cccnc2Sc2ccccc21,inactive: -1.15%,–
CCOC(=O)c1c(C)n(-c2ccccc2)c2ccc(OC(=O)COc3ccccc3)cc12,inactive: 16.5%,–
COc1ccc(N2CCN(C(=O)C3CCCN(C(=O)c4cc5sccc5n4C)C3)CC2)cc1 (stereo not given),inactive: 1.81%,–
CCCc1nnc(NC(=O)c2cc(=O)c3ccccc3o2)s1,inactive: 4.95%,–
CC(=O)N1c2ccc(S(=O)(=O)NCc3ccccc3Cl)cc2CC1C (stereo not given),–,inactive
CCc1cccc(NC(=O)CSc2nncn3c2cc2sccc23)c1,–,inactive
CCOc1ccc(CCNC(=O)c2cc3c(=O)n(CC)c4ccccc4c3s2)cc1OCC,–,inactive
CCOc1ccccc1NC(=O)CCCc1nc(-c2ccccc2Cl)no1,inactive: 6.39%,–
COc1ccc(CNC(=O)CCS(=O)(=O)c2cc(Br)cc3c2N(C(C)=O)C(C)C3)cc1 (stereo not given),–,inactive
COc1ccc(N2CCN(c3ccc(-c4nc(-c5ccccc5)no4)cc3[N+](=O)[O-])CC2)cc1,inactive: 3.06%,–
CCn1c2ccccc2c2cc(CN3CCN(Cc4cc(OC)c(O)c(OC)c4)CC3)ccc21,inactive: -28.3%,–

Compound,"activity change, negative = inhibition",outcome
Cc1ccc(C)c(NC(=O)Cn2nc(C)c3nn(-c4ccc(Cl)cc4)c(C)c3c2=O)c1,inactive: 8.39%,–
Cc1ccc(NC(=O)c2sc3ncn(Cc4cccc(F)c4)c(=O)c3c2C)c(Br)c1,inactive: 1.94%,–
O=C(Nc1cccc(Cl)c1Cl)c1ccc2c(c1)N(Cc1cccc(Cl)c1)C(=O)c1ccccc1S2=O (stereo not given),inactive: 2.86%,–
COc1cc2[nH]c(=O)n(Cc3ccc(C(=O)N4CCN(c5ccc(Cl)cc5)CC4)cc3)c(=O)c2cc1OC,inactive: -1.54%,–
Cc1ccccc1Nc1c(-c2cccc(Cl)c2)nc2ncccn12,inactive: -2.38%,–
CCN(CC)S(=O)(=O)c1ccc2c(c1)N(CC(=O)N1CCN(c3ccc(OC)cc3)CC1)C(=O)CO2,inactive: 6.41%,–
Cn1cnc(S(=O)(=O)N2CCCC(C(=O)NCc3ccc(Cl)cc3)C2)c1 (stereo not given),–,inactive
Cc1oc2ccc(O)c(CN3CCOCC3)c2c1C(=O)Nc1cccc(C(F)(F)F)c1,–,inactive
CC(C)CCNC(=O)c1ccc2c(c1)NC(=O)C(C(C)C)N2 (stereo not given),–,inactive
Cc1c(C)n(Cc2ccccc2)c2ccc(C(=O)N3CCN(c4ccc(F)cc4)CC3)cc12,–,inactive
COc1ccc(S(=O)(=O)NCCSc2nnnn2-c2ccccc2)cc1OC,inactive: 9.89%,–
Cc1ccc(Cl)cc1N1CCN(C(=O)CN2C(=O)COc3ccc(S(=O)(=O)N4CCCCCC4)cc32)CC1,inactive: 2.77%,–
CCN(Cc1ccccc1)C(=O)c1cc(-c2ccccc2)n[nH]1,inactive: -9.76%,–
Cc1[nH]c(C=C2C(=O)Nc3ccc(S(=O)(=O)Cc4c(Cl)cccc4Cl)cc32)c(C)c1C(=O)N1CCC[C@H]1CN1CCCC1,inactive: 5.34%,–
COc1cc(/C=C(\C#N)c2nc3ccccc3[nH]2)ccc1OCc1ccccc1F,inactive: -9.75%,–
CC(C)CN1CCc2nc(Nc3ccc(F)cc3F)ncc2C1,inactive: -0.207%,–
O=C(Cc1cccs1)Nc1c(C(=O)Nc2ccc(F)cc2)oc2ccccc12,inactive: -11.2%,–
CC(=O)N1CCc2c(sc3c2c(=O)n(Cc2ccccc2)c(=O)n3Cc2ccccc2F)C1,inactive: -9.88%,–
COc1ccc(-n2c(SCC(N)=O)nc3c(oc4ccccc43)c2=O)cc1,–,inactive
Cc1ccc(-c2onc(C)c2C)cc1S(=O)(=O)N1CCOc2ccc(Cl)cc21,–,inactive
COc1cc(N2CCN(C)CC2)ccc1Nc1nc(N)c(C(=O)c2c(Cl)cccc2Cl)s1,inactive: 7.95%,–
CC(C)(C)OC(=O)N1CCc2nc(N3CCN(c4ncccn4)CC3)ncc2C1,inactive: 3.23%,–
CCS(=O)(=O)N1CCc2cc(C(=O)N3CCN(c4ccccc4OC)CC3)ccc21,inactive: -19.5%,–
